Source: patent publication US5475132A, “Antifungal agents based on amides containing a phenyl group” (Rhone-Poulenc Agrochimie, priority 1988, dated 1995)

test system: Plasmopara viticola; experiment: Example B2: treatment of vine mildew (Plasmopara viticola) on vine cuttings; settings: 192 h, 330 ppm (0.33 g/l), vine cuttings, 8 days after infection, read-out: inhibition of the development of the mould
Description: Treatment of vine mildew (Plasmopara viticola)
Vine (Vitis vinifera) cuttings of the Chardonnay variety are cultivated in pots. When these plants are 2 months old (8 to 10 leaf stage, height 20 to 30 cm) they are treated in the same manner as in Example B1.
After drying for 24 hours, each plant is infected by spraying with an aqueous suspension of spores of Plasmopara viticola which is responsible for vine mildew, at the rate of about 5 ml/plant (that is about 100,000 spores per plant).
After this infection, the vine plants are incubated for two days at about 18° C. in a saturated atmosphere, then for five days at about 20°-22° C. and 90-100% relative humidity.
Eight days after infection, the results obtained in the case of the plants treated with the active material to be tested are compared with those obtained in the case of plants used as controls.

SMILES	inhibition at 330 ppm [%]
COc1ccc(C2=C(C(=O)N3CCOCC3)Cc3cc(OC)c(OC)cc32)cc1 [Compound 149]	≥ 80
CCN(C)C(=O)c1sc2ccccc2c1-c1ccc(OC)c(OC)c1 [Compound 150]	≥ 80
COc1ccc(-c2c(C(=O)N3CCCC(O)C3)sc3ccccc23)cc1OC (stereo not shown) [Compound 164]	≥ 80
COc1ccc(-c2c(C(=O)N3CCCC(OC)C3)sc3ccccc23)cc1OC (stereo not shown) [Compound 166]	≥ 80
CCN(C)C(=O)c1sc2ccc(F)cc2c1-c1ccc(OC)c(OC)c1 [Compound 167]	≥ 80
COCCN(C)C(=O)c1sc2ccc(F)cc2c1-c1ccc(OC)c(OC)c1 [Compound 169]	≥ 80
COc1ccc(-c2cc(-c3ccc(F)cc3)ccc2C(=O)N2CCOCC2)cc1OC [Compound 201, 2-(3,4-Dimethoxyphenyl)-4-(4-fluorophenyl)-1-morpholinocarbonylbenzene]	≥ 80
COc1ccc(-c2cc(-c3ccccc3)ccc2C(=O)N2CCOCC2)cc1OC [Compound 202]	≥ 80
COc1ccc(-c2cc(-c3ccc(C)cc3)ccc2C(=O)N2CCOCC2)cc1OC [Compound 203]	≥ 80
CCN(CC)C(=O)c1ccc(Br)cc1-c1ccc(OC)c(OC)c1 [Compound 205]	≥ 80
CCN(C)C(=O)c1ccc(Br)cc1-c1ccc(OC)c(OC)c1 [Compound 206]	≥ 80
COc1ccc(-c2cc(Cl)ccc2C(=O)N2CCOCC2)cc1OC [Compound 208]	≥ 80
CCN(C)C(=O)c1ccc(Cl)cc1-c1ccc(OC)c(OC)c1 [Compound 209]	≥ 80
CCN(CC)C(=O)c1ccc(Cl)cc1-c1ccc(OC)c(OC)c1 [Compound 211]	≥ 80
C=C(C)c1ccc(C(=O)N(C)CC)c(-c2ccc(OC)c(OC)c2)c1 [Compound 212]	≥ 80
C=C(C)c1ccc(C(=O)N(CC)CC)c(-c2ccc(OC)c(OC)c2)c1 [Compound 214]	≥ 80
COc1ccc(-c2cc(Br)ccc2C(=O)N2CCOCC2)cc1OC [Compound 222]	≥ 80
COc1ccc(-c2c(Br)cccc2C(=O)N2CCOCC2)cc1OC [Compound 223]	≥ 80
COc1ccc(-c2cc(C=C(C)C)ccc2C(=O)N2CCOCC2)cc1OC [Compound 235]	≥ 80
C=C(C)c1ccc(C(=O)N2CCOCC2)c(-c2ccc(OC)c(OC)c2)c1 [Compound 236]	≥ 80
COc1ccc(-c2cc(-c3ccc(Cl)cc3)ccc2C(=O)N2CCOCC2)cc1OC [Compound 237]	≥ 80
COc1ccc(-c2cc(-c3ccsc3)ccc2C(=O)N2CCOCC2)cc1OC [Compound 238]	≥ 80
COc1ccc(-c2nc(-c3ccccc3)ccc2C(=O)N2CCOCC2)cc1OC [Compound 301, N-[2-(3,4-dimathoxyphenyl)-6-phenylnicotinoyl]morpholine]	≥ 80
COc1ccc(-c2nc(-c3ccc(Cl)cc3)ccc2C(=O)N2CCOCC2)cc1OC [Compound 345]	≥ 80
CCN(C)C(=O)c1ccc(-c2ccc(Cl)cc2)nc1-c1ccc(OC)c(OC)c1 [Compound 347]	≥ 80
COc1ccc(-c2nc(-c3ccc(F)cc3)ccc2C(=O)N2CCOCC2)cc1OC [Compound 349]	≥ 80

test system: Phytophthora infestans; experiment: whole plant or invertebrate; settings: in Solanum lycopersicum, 168 h, read-out: inhibition of the development of the mould
Description: Treatment of tomato mildew (Phytophthora infestans)
Tomato (Lycopersicum esculentum) plants, of the Marmande variety, are cultivated in pots. When these plants are a month old (5 to 6 leaf stage, height 12 to 15 cm), they are treated by spraying with a suspension or aqueous solution of the material to be tested, which is at the desired concentration and contains a surfactant which is a condensate of sorbitan monooleate with 20 molecules of ethylene oxide. This surfactant is at a concentration equal to half the concentration of the active material. Each tomato plant receives about 5 ml of the solution or dispersion. The treatment is carried out on two plants for each concentration of active material to be tested. Plants used as controls are treated with a solution which contains no active material, but contains the same surfactant at an identical concentration.
After drying for 24 hours, each plant is infected by spraying with an aqueous suspension of spores of Phytophthora infestans, which is responsible for tomato mildew, at a rate of about 5 ml/plant (that is about 50,000 spores per plant).
After this infection, the tomato plants are incubated for one day at about 15° C. in a saturated atmosphere, then for five days at about 17° C. and 70% to 90% relative humidity.
Seven days after infection, the results obtained in the case of plants treated with the active material to be tested are compared with those obtained in the case of plants used as controls.

SMILES	inhibition at 1000 ppm [%]
COc1ccc(C2=C(C(=O)N3CCOCC3)Cc3cc(OC)c(OC)cc32)cc1 [Compound 149]	≥ 80
CCN(C)C(=O)c1sc2ccccc2c1-c1ccc(OC)c(OC)c1 [Compound 150]	≥ 80
COc1ccc(-c2c(C(=O)N3CCCC(O)C3)sc3ccccc23)cc1OC (stereo not shown) [Compound 164]	≥ 80
COc1ccc(-c2c(C(=O)N3CCCC(OC)C3)sc3ccccc23)cc1OC (stereo not shown) [Compound 166]	≥ 80
CCN(C)C(=O)c1sc2ccc(F)cc2c1-c1ccc(OC)c(OC)c1 [Compound 167]	≥ 80
COCCN(C)C(=O)c1sc2ccc(F)cc2c1-c1ccc(OC)c(OC)c1 [Compound 169]	≥ 80
COc1ccc(-c2cc(-c3ccc(F)cc3)ccc2C(=O)N2CCOCC2)cc1OC [Compound 201, 2-(3,4-Dimethoxyphenyl)-4-(4-fluorophenyl)-1-morpholinocarbonylbenzene]	≥ 80
COc1ccc(-c2cc(-c3ccccc3)ccc2C(=O)N2CCOCC2)cc1OC [Compound 202]	≥ 80
COc1ccc(-c2cc(-c3ccc(C)cc3)ccc2C(=O)N2CCOCC2)cc1OC [Compound 203]	≥ 80
CCN(CC)C(=O)c1ccc(Br)cc1-c1ccc(OC)c(OC)c1 [Compound 205]	≥ 80
CCN(C)C(=O)c1ccc(Br)cc1-c1ccc(OC)c(OC)c1 [Compound 206]	≥ 80
COc1ccc(-c2cc(Cl)ccc2C(=O)N2CCOCC2)cc1OC [Compound 208]	≥ 80
CCN(C)C(=O)c1ccc(Cl)cc1-c1ccc(OC)c(OC)c1 [Compound 209]	≥ 80
CCN(CC)C(=O)c1ccc(Cl)cc1-c1ccc(OC)c(OC)c1 [Compound 211]	≥ 80
C=C(C)c1ccc(C(=O)N(C)CC)c(-c2ccc(OC)c(OC)c2)c1 [Compound 212]	≥ 80
C=C(C)c1ccc(C(=O)N(CC)CC)c(-c2ccc(OC)c(OC)c2)c1 [Compound 214]	≥ 80
COc1ccc(-c2cc(Br)ccc2C(=O)N2CCOCC2)cc1OC [Compound 222]	≥ 80
COc1ccc(-c2c(Br)cccc2C(=O)N2CCOCC2)cc1OC [Compound 223]	≥ 80
COc1ccc(-c2cc(C=C(C)C)ccc2C(=O)N2CCOCC2)cc1OC [Compound 235]	≥ 80
C=C(C)c1ccc(C(=O)N2CCOCC2)c(-c2ccc(OC)c(OC)c2)c1 [Compound 236]	≥ 80
COc1ccc(-c2cc(-c3ccc(Cl)cc3)ccc2C(=O)N2CCOCC2)cc1OC [Compound 237]	≥ 80
COc1ccc(-c2cc(-c3ccsc3)ccc2C(=O)N2CCOCC2)cc1OC [Compound 238]	≥ 80
COc1ccc(-c2nc(-c3ccccc3)ccc2C(=O)N2CCOCC2)cc1OC [Compound 301, N-[2-(3,4-dimathoxyphenyl)-6-phenylnicotinoyl]morpholine]	≥ 80
COc1ccc(-c2nc(-c3ccc(Cl)cc3)ccc2C(=O)N2CCOCC2)cc1OC [Compound 345]	≥ 80
CCN(C)C(=O)c1ccc(-c2ccc(Cl)cc2)nc1-c1ccc(OC)c(OC)c1 [Compound 347]	≥ 80
COc1ccc(-c2nc(-c3ccc(F)cc3)ccc2C(=O)N2CCOCC2)cc1OC [Compound 349]	≥ 80
